# Assay results: PubChem BioAssay AID504332 (National Center for Advancing Translational Sciences (NCATS), 2011)
# About 31,000 (8.9%) of roughly 350,000 compounds were called active. The inconclusive results got no clear call from the source; some entries with a clear call stand among them for comparison. Calls follow the shape of the dose curve; as a rule, active = well fitted inhibition curve with a large enough effect; inconclusive = small, poorly fitted or top-dose-only effect; inactive = no such curve, though single readings can be large or run the other way. Where the call is inconclusive, the potency comes from a doubtful curve fit.
# Molecular target: Histone-lysine N-methyltransferase EHMT2 (Homo sapiens) (UniProt Q96KQ7)
# Test: qHTS Assay for Inhibitors of Histone Lysine Methyltransferase G9a; also: nearly all actives have a fitted effect of over 75% in size
# Conditions: G9a H3K9 monomethylation, AlphaScreen, 2 h; activity, negative = inhibition: at 59 µM (top of the series) unless noted
# Procedure, shortened: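 Quantitative HTS format: methyltransferase activity on a biotin-tagged H3K9 peptide is measured by AlphaScreen, using a rabbit anti-monomethyl-H3K9 antibody with streptavidin donor and anti-IgG acceptor beads. Final levels are 20 nM enzyme, 500 nM peptide, 20 uM SAM; 2 h RT.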
# % is scaled to controls: 0 for no effect and ±100 for the full control effect; potency is read from the fitted curve at half-maximal effect; tags tell the direction and shape of the fitted curve.
# Chain of UniProt Q96KQ7 (Q96KQ7 whole entry, looked up): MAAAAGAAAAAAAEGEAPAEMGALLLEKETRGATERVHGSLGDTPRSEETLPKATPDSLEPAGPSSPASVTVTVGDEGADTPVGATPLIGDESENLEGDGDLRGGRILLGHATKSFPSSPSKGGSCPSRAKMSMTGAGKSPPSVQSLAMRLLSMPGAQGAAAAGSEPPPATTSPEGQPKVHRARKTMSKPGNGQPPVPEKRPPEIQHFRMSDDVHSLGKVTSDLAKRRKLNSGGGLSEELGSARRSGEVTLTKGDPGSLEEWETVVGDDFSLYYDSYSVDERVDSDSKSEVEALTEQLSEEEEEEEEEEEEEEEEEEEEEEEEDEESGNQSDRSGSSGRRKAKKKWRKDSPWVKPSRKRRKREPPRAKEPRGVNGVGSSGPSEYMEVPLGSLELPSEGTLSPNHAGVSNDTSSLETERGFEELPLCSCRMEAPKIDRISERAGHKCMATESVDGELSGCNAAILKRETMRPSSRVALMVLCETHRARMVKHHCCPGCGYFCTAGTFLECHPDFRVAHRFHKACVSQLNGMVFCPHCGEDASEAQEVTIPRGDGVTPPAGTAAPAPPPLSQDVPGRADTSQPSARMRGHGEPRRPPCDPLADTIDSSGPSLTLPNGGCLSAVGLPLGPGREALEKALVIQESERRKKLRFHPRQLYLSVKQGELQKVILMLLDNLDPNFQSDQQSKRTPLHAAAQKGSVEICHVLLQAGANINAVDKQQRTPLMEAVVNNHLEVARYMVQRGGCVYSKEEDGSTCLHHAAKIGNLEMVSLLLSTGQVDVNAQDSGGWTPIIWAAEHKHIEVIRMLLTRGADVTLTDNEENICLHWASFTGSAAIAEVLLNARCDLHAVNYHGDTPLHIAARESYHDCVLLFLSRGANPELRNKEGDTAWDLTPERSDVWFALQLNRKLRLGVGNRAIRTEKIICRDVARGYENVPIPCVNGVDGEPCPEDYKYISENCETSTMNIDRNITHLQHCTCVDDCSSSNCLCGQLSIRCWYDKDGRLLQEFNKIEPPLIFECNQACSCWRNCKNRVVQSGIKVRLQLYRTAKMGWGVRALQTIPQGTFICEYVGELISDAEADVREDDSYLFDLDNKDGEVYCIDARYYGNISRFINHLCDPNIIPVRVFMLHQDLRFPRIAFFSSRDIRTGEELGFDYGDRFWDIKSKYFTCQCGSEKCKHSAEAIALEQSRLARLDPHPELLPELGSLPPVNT
Compound,Potency,"activity, negative = inhibition"
COc1ccc(N2CCN(CCCNC(=O)c3ccc4nc(CCc5ccccc5)oc4c3)CC2)cc1,"inconclusive: 28.2 µM [inhibitor, single point]",–
CCNC(=O)c1c(NC(=O)COc2ccc(F)cc2)sc2c1CCCC2,"inconclusive: 6.31 µM [inhibitor, single point]",–
OCCC1CN(C2CCC2)CCN1Cc1ccc(F)c(F)c1 (configuration not stated),–,inactive: 14.7% [at 102 µM]
CCC(=O)Nc1ccc(C(=O)CN2C(=O)NC3(CCCCCC3)C2=O)cc1,"inconclusive: 10 µM [inhibitor, single point]",–
Cc1nnc(SCC(=O)c2ccc(Cl)cc2)n(N)c1=O,"inconclusive: 39.8 µM [inhibitor, partial curve]",–
O=C(CSc1nc2ccc(NC(=O)c3ccccc3C(=O)O)cc2s1)Nc1ccc(F)c([N+](=O)[O-])c1,"inconclusive: 79.4 µM [inhibitor, single point]",–
O=C(NNc1ccc([N+](=O)[O-])cc1)C1C2CCCCC21 (configuration not stated),active: 89.1 µM,–
Cc1ccc(C2c3c(oc4cc(C)c(C)cc4c3=O)C(=O)N2CCCN2CCOCC2)cc1 (configuration not stated),active: 39.8 µM,–
Cc1nc(SCC(=O)NC2CCCCC2C)c(C#N)c(C)c1C (configuration not stated),"inconclusive: 0.398 µM [inhibitor, full curve, poor fit]",–
CCOC(=O)Cc1csc(N/N=C\c2cccc(Br)c2)n1,–,inactive: -27.5% [at 0.0925 µM]
O=C(/C=C/c1ccccc1)Nc1cc(S(=O)(=O)N2CCOCC2)ccc1N1CCCC1,"inconclusive: 3.16 µM [inhibitor, full curve]",–
O=C(c1ccc2c(c1)N(Cc1ccc(F)cc1)CCS2)N1CCN(c2ccccc2)CC1,"inconclusive: 8.91 µM [inhibitor, partial curve, poor fit]",–
CC(Sc1ccccn1)C(=O)Nc1ccc(S(N)(=O)=O)cc1 (configuration not stated),"inconclusive: 17.8 µM [inhibitor, single point]",–
COc1ccc(S(=O)(=O)NCCCN2CCCC2=O)cc1OC,"inconclusive: 89.1 µM [inhibitor, single point]",–
CCCc1ccc(OCC(=O)Nc2scc(-c3cccs3)c2C(=O)OC)cc1,"inconclusive: 2 µM [inhibitor, full curve, poor fit]",–
COc1ccc2c(c1)CC(C(=O)NCCN1CCN(c3cccc(Cl)c3)CC1)CO2 (configuration not stated),"inconclusive: 31.6 µM [inhibitor, partial curve, poor fit]",–
COc1ccc(C(=O)Nc2ccc(C(=O)OCC(=O)c3cccc4ccccc34)cc2)cc1,"inconclusive: 3.98 µM [inhibitor, full curve, poor fit]",–
COc1cc(Nc2cc(C)nc3nc(C)nn23)cc(OC)c1OC,"inconclusive: 31.6 µM [inhibitor, single point]",–
NC(=O)c1cc(S(=O)(=O)NCCCc2ccccc2)cs1,–,inactive: 5.05% [at 102 µM]
O=C(OCc1nc2ccccc2[n+]([O-])c1C(=O)c1ccccc1)c1cccnc1,"inconclusive: 89.1 µM [inhibitor, partial curve, poor fit]",–
CCCCOc1ccc(-c2nc(SCC(N)=O)n[nH]2)cc1,–,inactive: 2.2% [at 102 µM]

Compound,Potency,"activity, negative = inhibition"
CC1CCCCN1C(=O)Cn1c(=O)oc2cc(S(=O)(=O)N3CCCC3)ccc21 (configuration not stated),"inconclusive: 56.2 µM [inhibitor, partial curve, poor fit]",–
CC(C)Cn1c(N)c(C(=O)COC(=O)c2cnccn2)c(=O)n(C)c1=O,"inconclusive: 6.31 µM [inhibitor, partial curve, poor fit]",–
COc1cccc(CNC(=O)CNC(=O)c2cccs2)c1,"inconclusive: 39.8 µM [inhibitor, single point]",–
CN(C)S(=O)(=O)c1ccc2c(c1)Cc1cc(S(=O)(=O)N(C)C)ccc1-2,–,inactive: -50.4% [at 102 µM]
COc1ccc(S(=O)(=O)Nc2nnc(C(C)C)s2)cc1,"inconclusive: 39.8 µM [inhibitor, single point]",–
CC1(C)CC(Nc2ccc(C(F)(F)F)cc2[N+](=O)[O-])CC(C)(C)N1,"inconclusive: 0.562 µM [inhibitor, full curve]",–
O=C(NCc1cccs1)c1ccc2c(c1)ncn2C1CCCC1,active: 50.1 µM,–
O=c1c2c3c(sc2n2cnnc2n1Cc1ccccc1)CN(Cc1ccccc1)CC3,"inconclusive: 3.16 µM [inhibitor, partial curve, poor fit]",–
Cc1ccc(CNC(=O)c2sc3nc4n(c(=O)c3c2C)CCCC4)cc1,"inconclusive: 10 µM [inhibitor, partial curve]",–
c1ccc(-n2cnnc2SCc2nc3ccccc3s2)cc1,"inconclusive: 35.5 µM [inhibitor, single point]",–
CSc1cc(N2CCOCC2)nc(-c2ccccc2Cl)n1,"inconclusive: 1.26 µM [inhibitor, full curve]",–
CN(Cc1ccccc1F)C(=O)CN1C(=O)NC2(CCc3ccccc32)C1=O (configuration not stated),"inconclusive: 89.1 µM [inhibitor, single point]",–
C=CCN1C(=O)c2ccc(C(=O)N(C)CC(=O)Nc3ccccc3Br)cc2C1=O,–,inactive: 1.51% [at 102 µM]
O=C(COC(=O)c1ccc(Cl)c(S(=O)(=O)N2CCc3ccccc3C2)c1)Nc1ncc(Cl)cc1Cl,"inconclusive: 25.1 µM [inhibitor, single point]",–
COc1ccc(N2CCN(C(=O)c3ccc4c(c3)NC(=O)C(CSCc3cccc(F)c3)N4)CC2)cc1 (configuration not stated),active: 20 µM,–
COc1cccc(NC(=O)CN(C)S(=O)(=O)c2cccs2)c1,–,inactive: -8.01%
CN(CCO)c1nc(N)c2c(N)nc3c(c2c1C#N)CC(=O)N3C1CCCC1,"inconclusive: 20 µM [inhibitor, single point]",–
CN(C)CCCn1c(SCC(=O)N2c3ccccc3Sc3ccccc32)nc2ccccc2c1=O,active: 39.8 µM,–
CC(c1ccccc1)n1c(-c2ccc(C(C)(C)C)cc2)n[nH]c1=S (configuration not stated),active: 31.6 µM,–
CCC(=O)N1CCc2cc(CNC(=O)Nc3ccccc3Cl)ccc21,–,inactive: 10.3%
COc1cc2ncc(S(=O)(=O)c3ccccc3)c(N3CCCC(C)C3)c2cc1OC (configuration not stated),"inconclusive: 89.1 µM [inhibitor, single point]",–
